# According to publication PMC12820563, “FoxP3 forms a head-to-head dimer in vivo and stabilizes its multimerization on adjacent microsatellites”:
# The list shows a part of the results.
# Target: T1, MBP-FoxP1dN (Mus musculus, UniProt P58462 326-579)
# T1 sequence: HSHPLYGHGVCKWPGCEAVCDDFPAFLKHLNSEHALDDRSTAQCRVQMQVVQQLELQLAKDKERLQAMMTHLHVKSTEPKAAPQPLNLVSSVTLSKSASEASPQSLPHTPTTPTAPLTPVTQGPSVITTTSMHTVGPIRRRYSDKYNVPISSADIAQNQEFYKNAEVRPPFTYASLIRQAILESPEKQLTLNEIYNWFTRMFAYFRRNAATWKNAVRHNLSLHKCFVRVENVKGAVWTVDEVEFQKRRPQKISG
# Assay: PD-seq (MBP pull-down with sequencing); 20 mM Tris-HCl pH 7.5, 100 mM NaCl, 1.5 mM MgCl2, 0.4 uM protein, 0.1 uM dsDNA library, 30 min, room temperature, amylose pull-down; high values mean tight binding
# Settings: protein: recombinant; tags: His6-MBP; chain copies: 2; dsDNA, one strand shown
# How it was run: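 A fragment of mouse FoxP3 or FoxP1 without its N-terminus, carrying a His6-MBP tag and produced in E. coli, was combined at 0.4 µM with a 0.1 µM degenerate double-stranded DNA library filled in with Klenow. The mixture sat for 30 min at room temperature in Tris pH 7.5 buffer containing NaCl and MgCl2. Protein–DNA complexes were captured on amylose resin, washed three times, and the DNA was freed with proteinase K, barcoded by PCR and sequenced on Illumina. Binding is expressed as reads-per-million enrichment of pull-down over input, with replicates pooled.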
row,Sequence,binding signal
1,GATGATTGTTCTCCCAGCTGATGAATTCTTCAGCTCGAGTAAACAAATTTTCCTAATCTTTCTGTTCAAGCGCCATCTAC,0.854 RPM ratio (pull-down/input)
2,GATGATTGTTCTCCCAGCTGATGAATTATATTTATCGAGTAAACAAATTTTCCTAATCTTTCTGTTCAAGCGCCATCTAC,2.43 RPM ratio (pull-down/input)
3,GATGATTGTTCTCCCAGCTGATGAATTACCGTCGTCGAGTAAACAAATTTTCCTAATCTTTCTGTTCAAGCGCCATCTAC,0.955 RPM ratio (pull-down/input)
4,GATGATTGTTCTCCCAGCTGATGAATTTCATGTCTCGAGTAAACAAATTTTCCTAATCTTTCTGTTCAAGCGCCATCTAC,0.774 RPM ratio (pull-down/input)
5,GATGATTGTTCTCCCAGCTGATGAATTGTACAAATCGAGTAAACAAATTTTCCTAATCTTTCTGTTCAAGCGCCATCTAC,1.35 RPM ratio (pull-down/input)
6,GATGATTGTTCTCCCAGCTGATGAATTCCAAGGGTCGAGTAAACAAATTTTCCTAATCTTTCTGTTCAAGCGCCATCTAC,0.669 RPM ratio (pull-down/input)
7,GATGATTGTTCTCCCAGCTGATGAATTACCTCTGTCGAGTAAACAAATTTTCCTAATCTTTCTGTTCAAGCGCCATCTAC,0.836 RPM ratio (pull-down/input)
8,GATGATTGTTCTCCCAGCTGATGAATTGTGCACATCGAGTAAACAAATTTTCCTAATCTTTCTGTTCAAGCGCCATCTAC,1.23 RPM ratio (pull-down/input)
9,GATGATTGTTCTCCCAGCTGATGAATTATCGGTCTCGAGTAAACAAATTTTCCTAATCTTTCTGTTCAAGCGCCATCTAC,0.857 RPM ratio (pull-down/input)
10,GATGATTGTTCTCCCAGCTGATGAATTTACGCTGTCGAGTAAACAAATTTTCCTAATCTTTCTGTTCAAGCGCCATCTAC,1.29 RPM ratio (pull-down/input)
11,GATGATTGTTCTCCCAGCTGATGAATTCAGCTTTTCGAGTAAACAAATTTTCCTAATCTTTCTGTTCAAGCGCCATCTAC,0.882 RPM ratio (pull-down/input)
12,GATGATTGTTCTCCCAGCTGATGAATTCCGGACATCGAGTAAACAAATTTTCCTAATCTTTCTGTTCAAGCGCCATCTAC,0.818 RPM ratio (pull-down/input)
13,GATGATTGTTCTCCCAGCTGATGAATTTGTGAGGTCGAGTAAACAAATTTTCCTAATCTTTCTGTTCAAGCGCCATCTAC,1.05 RPM ratio (pull-down/input)
14,GATGATTGTTCTCCCAGCTGATGAATTTCCACATTCGAGTAAACAAATTTTCCTAATCTTTCTGTTCAAGCGCCATCTAC,0.883 RPM ratio (pull-down/input)
15,GATGATTGTTCTCCCAGCTGATGAATTACGACGATCGAGTAAACAAATTTTCCTAATCTTTCTGTTCAAGCGCCATCTAC,1.01 RPM ratio (pull-down/input)
16,GATGATTGTTCTCCCAGCTGATGAATTGTTTTTCTCGAGTAAACAAATTTTCCTAATCTTTCTGTTCAAGCGCCATCTAC,2.22 RPM ratio (pull-down/input)
17,GATGATTGTTCTCCCAGCTGATGAATTCAAAATATCGAGTAAACAAATTTTCCTAATCTTTCTGTTCAAGCGCCATCTAC,1.45 RPM ratio (pull-down/input)
18,GATGATTGTTCTCCCAGCTGATGAATTAAATATATCGAGTAAACAAATTTTCCTAATCTTTCTGTTCAAGCGCCATCTAC,1.09 RPM ratio (pull-down/input)
19,GATGATTGTTCTCCCAGCTGATGAATTTGACCCGTCGAGTAAACAAATTTTCCTAATCTTTCTGTTCAAGCGCCATCTAC,0.761 RPM ratio (pull-down/input)
20,GATGATTGTTCTCCCAGCTGATGAATTAACCCGTTCGAGTAAACAAATTTTCCTAATCTTTCTGTTCAAGCGCCATCTAC,0.945 RPM ratio (pull-down/input)

row,Sequence,binding signal
1,GATGATTGTTCTCCCAGCTGATGAATTTCAGTTCTCGAGTAAACAAATTTTCCTAATCTTTCTGTTCAAGCGCCATCTAC,0.791 RPM ratio (pull-down/input)
2,GATGATTGTTCTCCCAGCTGATGAATTCTCGTAATCGAGTAAACAAATTTTCCTAATCTTTCTGTTCAAGCGCCATCTAC,1.32 RPM ratio (pull-down/input)
3,GATGATTGTTCTCCCAGCTGATGAATTTAGATTTTCGAGTAAACAAATTTTCCTAATCTTTCTGTTCAAGCGCCATCTAC,1.08 RPM ratio (pull-down/input)
4,GATGATTGTTCTCCCAGCTGATGAATTTACAAGTTCGAGTAAACAAATTTTCCTAATCTTTCTGTTCAAGCGCCATCTAC,1.47 RPM ratio (pull-down/input)
5,GATGATTGTTCTCCCAGCTGATGAATTCATTGCATCGAGTAAACAAATTTTCCTAATCTTTCTGTTCAAGCGCCATCTAC,1.24 RPM ratio (pull-down/input)
6,GATGATTGTTCTCCCAGCTGATGAATTACCCCCTTCGAGTAAACAAATTTTCCTAATCTTTCTGTTCAAGCGCCATCTAC,0.911 RPM ratio (pull-down/input)
7,GATGATTGTTCTCCCAGCTGATGAATTACTTTGGTCGAGTAAACAAATTTTCCTAATCTTTCTGTTCAAGCGCCATCTAC,0.952 RPM ratio (pull-down/input)
8,GATGATTGTTCTCCCAGCTGATGAATTGGAAGTTTCGAGTAAACAAATTTTCCTAATCTTTCTGTTCAAGCGCCATCTAC,0.867 RPM ratio (pull-down/input)
9,GATGATTGTTCTCCCAGCTGATGAATTATTGTAGTCGAGTAAACAAATTTTCCTAATCTTTCTGTTCAAGCGCCATCTAC,1.36 RPM ratio (pull-down/input)
10,GATGATTGTTCTCCCAGCTGATGAATTATATGAATCGAGTAAACAAATTTTCCTAATCTTTCTGTTCAAGCGCCATCTAC,1.03 RPM ratio (pull-down/input)
11,GATGATTGTTCTCCCAGCTGATGAATTATATACGTCGAGTAAACAAATTTTCCTAATCTTTCTGTTCAAGCGCCATCTAC,1.19 RPM ratio (pull-down/input)
12,GATGATTGTTCTCCCAGCTGATGAATTAAGGGCCTCGAGTAAACAAATTTTCCTAATCTTTCTGTTCAAGCGCCATCTAC,0.879 RPM ratio (pull-down/input)
13,GATGATTGTTCTCCCAGCTGATGAATTCGTGGAATCGAGTAAACAAATTTTCCTAATCTTTCTGTTCAAGCGCCATCTAC,0.925 RPM ratio (pull-down/input)
14,GATGATTGTTCTCCCAGCTGATGAATTTCGTAAGTCGAGTAAACAAATTTTCCTAATCTTTCTGTTCAAGCGCCATCTAC,0.932 RPM ratio (pull-down/input)
15,GATGATTGTTCTCCCAGCTGATGAATTGGTTCGTTCGAGTAAACAAATTTTCCTAATCTTTCTGTTCAAGCGCCATCTAC,0.942 RPM ratio (pull-down/input)
16,GATGATTGTTCTCCCAGCTGATGAATTCAAGACCTCGAGTAAACAAATTTTCCTAATCTTTCTGTTCAAGCGCCATCTAC,0.724 RPM ratio (pull-down/input)
17,GATGATTGTTCTCCCAGCTGATGAATTGGCCGTTTCGAGTAAACAAATTTTCCTAATCTTTCTGTTCAAGCGCCATCTAC,0.865 RPM ratio (pull-down/input)
18,GATGATTGTTCTCCCAGCTGATGAATTCACAAGATCGAGTAAACAAATTTTCCTAATCTTTCTGTTCAAGCGCCATCTAC,0.88 RPM ratio (pull-down/input)
19,GATGATTGTTCTCCCAGCTGATGAATTTCGAAATTCGAGTAAACAAATTTTCCTAATCTTTCTGTTCAAGCGCCATCTAC,0.918 RPM ratio (pull-down/input)
20,GATGATTGTTCTCCCAGCTGATGAATTGCCCGTCTCGAGTAAACAAATTTTCCTAATCTTTCTGTTCAAGCGCCATCTAC,0.875 RPM ratio (pull-down/input)
